PubChem BioAssay (NCI)
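These data come from cells grown in 96-well plates and exposed to compound for 48 hours at five concentrations. GI50: concentration for 50% inhibition of growth.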 A number of entries come with more than one value. Only these are listed. The source may hold further records. A record mostly stands for its own series of concentrations, which the source does not state; a value can be the end of its range.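 TGI: concentration producing complete growth inhibition.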

Columns and labels:
Test in all cases: NCI-60 cell line screen, 48 h
MOLT-4 leukemia = system: MOLT-4 leukemia
RPMI-8226 leukemia = system: RPMI-8226 leukemia
COLO 205 colon = system: COLO 205 colon
NCI-H226 lung = system: NCI-H226 lung
LOX IMVI melanoma = system: LOX IMVI melanoma
TK-10 renal = system: TK-10 renal
NCI-H522 lung = system: NCI-H522 lung
HT29 colon = system: HT29 colon
HS 578T breast = system: HS 578T breast
RXF 393 renal = system: RXF 393 renal
MALME-3M melanoma = system: MALME-3M melanoma
EKVX NSCLC = system: EKVX NSCLC
OVCAR-5 ovarian = system: OVCAR-5 ovarian
UACC-62 melanoma = system: UACC-62 melanoma
HCC-2998 colon = system: HCC-2998 colon
HL-60(TB) leukemia = system: HL-60(TB) leukemia
SNB-19 CNS = system: SNB-19 CNS

Row | SMILES | TGI (MOLT-4 leukemia) | TGI (RPMI-8226 leukemia) | TGI (COLO 205 colon) | TGI (NCI-H226 lung) | GI50 (LOX IMVI melanoma) | TGI (TK-10 renal) | TGI (NCI-H522 lung) | TGI (HT29 colon) | TGI (HS 578T breast) | TGI (RXF 393 renal) | GI50 (MALME-3M melanoma) | TGI (EKVX NSCLC) | TGI (OVCAR-5 ovarian) | TGI (UACC-62 melanoma) | TGI (HCC-2998 colon) | TGI (HL-60(TB) leukemia) | TGI (SNB-19 CNS)
1 | S=C(N/N=C(/c1ccccc1)c1ccccn1)N1CCCCC1 | < 1 nM and 5.63 µM | 8.27 nM and 2.21 µM | 5.28 nM and 5.11 µM | 141 nM and 2.17 µM | 3.43 nM and 46 nM | – | – | – | – | – | – | – | – | – | – | – | –
2 | CC(=O)O[C@@]12CO[C@@H]1C[C@H](O)[C@@]1(C)C(=O)[C@H](O)C3=C(C)[C@@H](OC(=O)[C@H](O)[C@@H](NC(=O)OC(C)(C)C)c4ccccc4)C[C@@](O)([C@@H](OC(=O)c4ccccc4)[C@H]21)C3(C)C | – | – | – | – | – | 600 nM and > 74.6 µM | 57.5 nM and 1.93 nM | 14.9 nM and 1.23 µM | 13.3 nM and 72.4 µM | 95.6 nM and 3.3 µM | 35.8 nM and 666 nM | 458 nM and > 100 µM | 102 nM and 31.2 µM | 906 nM and > 52 µM | 789 nM and 26.2 nM | 51.8 nM, 26.6 nM, 1.15 µM | 10.2 nM and > 100 µM
